According to paper PMC4336329 (PLoS ONE, 2015):
Among all 310,000 compounds or so, about 14,000 (4.5%) showed an effect of 50% or more. The effect is printed as a negative number. Some of the results follow.

target: human ether-à-go-go-related gene (hERG) potassium channel (human, UniProt Q12809); assay: primary screen, population patch clamp on CHO cells stably expressing hERG
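Also: peak tail current of the secondary pulse compared with the same well before compound.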

human ether-à-go-go-related gene (hERG) potassium channel, sequence (Q12809 whole entry, looked up): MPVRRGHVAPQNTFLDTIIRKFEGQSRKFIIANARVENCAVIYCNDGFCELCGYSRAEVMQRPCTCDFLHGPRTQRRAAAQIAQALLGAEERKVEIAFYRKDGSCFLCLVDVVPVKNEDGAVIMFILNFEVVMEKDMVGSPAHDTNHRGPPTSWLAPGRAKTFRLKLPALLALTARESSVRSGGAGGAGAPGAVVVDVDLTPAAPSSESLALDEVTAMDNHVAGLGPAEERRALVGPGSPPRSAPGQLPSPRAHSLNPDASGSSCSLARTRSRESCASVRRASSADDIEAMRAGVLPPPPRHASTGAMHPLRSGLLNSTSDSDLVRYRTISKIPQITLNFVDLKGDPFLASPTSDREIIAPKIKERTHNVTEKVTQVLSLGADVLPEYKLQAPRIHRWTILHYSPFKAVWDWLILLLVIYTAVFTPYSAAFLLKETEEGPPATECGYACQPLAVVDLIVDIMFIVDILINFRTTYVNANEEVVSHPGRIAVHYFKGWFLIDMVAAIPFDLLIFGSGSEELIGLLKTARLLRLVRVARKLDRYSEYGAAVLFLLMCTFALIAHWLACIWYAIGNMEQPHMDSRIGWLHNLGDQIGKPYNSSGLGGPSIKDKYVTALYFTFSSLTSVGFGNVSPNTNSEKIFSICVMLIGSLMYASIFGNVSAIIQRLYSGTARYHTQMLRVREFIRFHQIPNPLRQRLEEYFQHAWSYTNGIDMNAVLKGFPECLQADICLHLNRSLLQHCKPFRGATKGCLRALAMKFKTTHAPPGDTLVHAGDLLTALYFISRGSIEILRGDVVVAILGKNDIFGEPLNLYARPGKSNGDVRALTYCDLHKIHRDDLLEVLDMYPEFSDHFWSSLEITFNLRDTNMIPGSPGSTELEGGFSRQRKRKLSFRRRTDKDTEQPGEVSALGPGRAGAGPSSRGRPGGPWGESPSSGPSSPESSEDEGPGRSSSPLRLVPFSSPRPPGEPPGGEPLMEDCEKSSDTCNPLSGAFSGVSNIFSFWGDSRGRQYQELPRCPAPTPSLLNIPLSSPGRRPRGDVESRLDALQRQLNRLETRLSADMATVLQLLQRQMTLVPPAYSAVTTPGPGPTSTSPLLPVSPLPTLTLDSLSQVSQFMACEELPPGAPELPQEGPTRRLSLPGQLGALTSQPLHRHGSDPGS

| Compound | hERG current change (%, negative = inhibition) at 10uM [%] |
| --- | --- |
| O=C(COc1ccc(Cl)cc1)Nc1ccc2c(c1)nc1n2CCOC1 | -34 |
| N#Cc1ccccc1COC(=O)c1cc(=O)c2ccccc2o1 | 11.7 |
| CC1(C)SC(=S)N(/N=C/c2cccnc2)C1N(O)C(=O)Nc1ccccc1 (centres unmarked) | -5.91 |
| CCOc1ccc(CCNC(=O)COC(=O)c2cccs2)cc1OCC | -39.8 |
| O=C(Oc1ccc(-c2csnn2)cc1)C1CC1 | 1.13 |
| CCN(CC)CCNC(=O)c1ccc(NC(=O)/C=C/c2ccc3ccccc3n2)cc1 | -17.4 |
| O=C(N/N=C1/CCc2ccccc21)C1CC1 | 6.58 |
| O=C(CCl)N1c2ccccc2OCC1c1ccccc1 (centres unmarked) | -10.7 |
| COc1ccc(Cc2nc(C(=O)Nc3ccc(OC)cc3)cs2)cc1 | 1.39 |
| CCOC(=O)Cn1c(=O)c(-c2ccccc2N)nc2ccccc21 | 3.63 |
| CON(C)c1nc(Oc2ccc(=O)[nH]n2)nc(N(C)C)n1 | -9.3 |
| Cc1c2ccncc2c(C)c2c1[nH]c1ccccc12 | 5.52 |
| CN(C(=O)COC(=O)C1CCN(S(=O)(=O)c2cccs2)CC1)C1CCS(=O)(=O)C1 (centres unmarked) | -1.99 |
| CCOC(=O)c1nn(-c2ccc(C)cc2)c(=O)cc1OCC(=O)Nc1cccc(C)c1 | 9.15 |
| CN(CCC1CCOCC1)C(=O)C1CCC(=O)N(CCc2ccc(Cl)cc2)C1 (centres unmarked) | -62 |
| Cn1c(COc2ccccc2)nnc1SCC(=O)NC1CCCC1 | -3.42 |
| CCc1nnc(NC(=O)CSc2ncc(-c3ccccc3)[nH]2)s1 | 2.52 |
| CCc1cccc(NC(=S)Nc2ccc(CN3CCOCC3)cc2)c1 | -3.92 |
| C=CCNc1sc(C(=O)c2ccc(Br)s2)c(N)c1C#N | 7.52 |
| Cc1sc2c(c1C)C(O)=C(C(=O)Nc1ccccc1)S(=O)(=O)N2C | 4.91 |
| CCCCN(CCCC)/C(N)=N/c1nc(C)cc(C)n1 | -80.2 |
| CC1CCCN(C(=O)CSc2nnc3n(C4CCCC4)c(=O)c4ccccc4n23)C1 (centres unmarked) | -62.7 |
| COc1cccc(C(=O)Nc2nnc(-c3cccs3)s2)c1 | 9.53 |

| Compound | hERG current change (%, negative = inhibition) at 10uM [%] |
| --- | --- |
| COC(=O)C(=O)N1CC2(C)CNCC(C)(C1)C2=O | 18.5 |
| CCOC(=O)CCNC(=O)c1ccccc1Br | 4.69 |
| COc1ccc(NC(=O)c2c(C)oc3c2CCCC3)cc1 | 3.31 |
| CC(=O)Nc1ccc(-c2nnc(SCC(=O)NCc3ccco3)n2C)cc1 | 13.5 |
| Cc1c(/C=N/NC(=O)c2cc(C(C)(C)C)[nH]n2)c2ccccc2n1C | 5.21 |
| O=C(COc1ccccc1F)NCc1nc2ccccc2[nH]1 | -6.5 |
| COc1ccc(-c2nc(=S)[nH][nH]2)cc1OC | 23.7 |
| CCOC(=O)C1CCCN(C(=O)c2cccc(S(=O)(=O)N(C)c3ccc(C)cc3)c2)C1 (centres unmarked) | -44.9 |
| CCCNC(=O)c1ccccc1NS(=O)(=O)c1ccc2c(c1)OCCO2 | -1.56 |
| O=C(C1CCN(S(=O)(=O)c2cccc3cccnc23)CC1)N1CCN(c2ccccn2)CC1 | -36.7 |
| COc1ccc(S(=O)(=O)CCC(=O)N2CCN(c3cccc(Cl)c3)CC2)cc1 | -34.8 |
| CC1=C(C(=O)OCc2ccccc2)C(/C=C/c2ccccc2)N2C(=O)CCSC2=N1 (centres unmarked) | 13.2 |
| COc1cccc(OCC(O)CN2CCN(C(c3ccccc3)c3ccccc3)CC2)c1.Cl (centres unmarked) | -43.6 |
| O=C(N=Nc1c(O)[nH]c2ccccc12)c1ccco1 | 13.3 |
| Cc1ccc(NC(=O)c2ccc(F)c(S(=O)(=O)N3CCOCC3)c2)cc1F | -5.11 |
| O=C(CC1C(=O)NCCN1Cc1c(F)cccc1Cl)NCCC1=CCCCC1 (centres unmarked) | 0.921 |
| COc1ccc(N2C(=O)C(Cl)=C(Nc3ccccc3OC)C2=O)cc1 | 11.5 |
| COc1cc(-c2c(-c3cccc(C)c3)oc3ccccc23)cc(OC)c1OC | 22.2 |
| NC(=O)c1ccsc1NC(=O)COC(=O)c1ccccn1 | -9.57 |
| CC1CCN(CCCNC(=O)CCNC(=O)Cn2cnc3ccccc3c2=O)CC1 | 20.5 |
| COC(=O)c1c(-c2ccccc2)c[nH]c1C | 13 |
| Cc1cccc(COCC(Cc2ccccc2)N2CCN(C(=O)c3ccc(Cl)c(Cl)c3)CCC2=O)c1 (centres unmarked) | -19 |
| CC(=O)c1c(C(C)=O)c(C)n(-c2nc(-c3ccccc3)c(C)s2)c1C | 2.21 |

| Compound | hERG current change (%, negative = inhibition) at 10uM [%] |
| --- | --- |
| O=C(CSc1ccc2nnc(-c3ccccn3)n2n1)N1CCOCC1 | -24.5 |
| COc1cc(C(=O)Nc2cccc(-c3nncn3C)c2)cc(OC)c1OC | 2.63 |
| O=C1NC2(CCCCC2)C(=O)N1Cc1cccc(C(F)(F)F)c1 | 1.29 |
| Cc1ncoc1C(=O)N1CCCC(C(=O)c2ccc3c4c(cccc24)CC3)C1 (centres unmarked) | -15.5 |
| COc1ccc2occ(C(=O)c3ccccc3)c2c1 | -15.3 |
| CCn1c(C)nc2cc(C(=O)OCCC(F)(F)F)ccc21 | -24.6 |
| CCC(C)NC(=O)CSC1=Nc2ccccc2C2=NC(CC(=O)NCc3ccc(F)cc3)C(=O)N12 (centres unmarked) | -11.4 |
| COc1ccc(C(=O)C(CCC(CNC(C)(C)C)C(=O)c2ccc(OC)cc2)CNC(C)(C)C)cc1.Cl (centres unmarked) | -9.88 |
| COc1ccccc1C(=O)NC1CCSc2ccccc21 (centres unmarked) | -6.48 |
| COc1ccc(N2CCCC2)c(NC(=O)c2ccc(Br)o2)c1 | 11.8 |
| COc1ccc(Nc2nnc(Cc3ccc(Cl)cc3)c(=O)[nH]2)c(OC)c1 | -32.3 |
| O=C(CCCC(=O)OCC(F)(F)C(F)F)Nc1ccccc1F | 14.8 |
| O=C(Nc1cccnc1Cl)c1ccc(Cl)cc1 | -3.09 |
| COc1ccccc1CNc1nc2ccccc2n1CCN1CCCCC1 | -61.5 |
| Nn1c(CSc2nc3ccccc3o2)nnc1CSc1nc2ccccc2o1 | -22.8 |
| C[C@@H]1C=CC(=O)O[C@@H]1c1ccc(C(F)(F)F)cc1 | 2.71 |
| COc1ccc(N2CCN(C(=O)COC(=O)c3ccc(-n4nc(C)cc4C)cc3)CC2)cc1 | -1.95 |
| Cn1cccc1C(=O)C(=O)Nc1cccc(Cl)c1Cl | 9.89 |
| c1ccc(COc2ccc(-c3csnn3)cc2)cc1 | -3.17 |
| CC(Sc1ccc([N+](=O)[O-])cn1)C(=O)Nc1nccs1 (centres unmarked) | -5.58 |
| Cc1ccc(C)c(N2CCN(C(=O)c3ccc4c(c3)c(C)c(C)n4C)CC2)c1 | 10.8 |
| CCN1CCCC1CNC(=O)c1cc2cc(F)ccc2[nH]1 (centres unmarked) | -73.3 |
| O=C(CSC1=NCCS1)Nc1nc2ccccc2s1 | 6.64 |

| Compound | hERG current change (%, negative = inhibition) at 10uM [%] |
| --- | --- |
| COc1cccc(-c2cc(C(=O)N3CCN(C(c4ccccc4)c4ccccc4)CC3)no2)c1 | 5.76 |
| Cc1ccccc1CSCCNC(=O)CSCc1ccc([N+](=O)[O-])cc1 | -51.3 |
| OC[C@H]1O[C@@H](n2cnc3c(Nc4ccccc4)ncnc32)[C@H](O)[C@@H]1O | -11.1 |
| CN(CP(=O)(O)CN(C)S(C)(=O)=O)S(C)(=O)=O | 8.86 |
| Cc1csc(Sc2ccc([N+](=O)[O-])cc2C(=O)OCC(=O)NC2CCCC(C)C2C)n1 (centres unmarked) | -26.2 |
| CCc1ccc(NC(=O)Cn2c(SC)nc3ccccc32)cc1 | 3.1 |
| Cc1cc(/C=C2\C(=O)NC(=O)N(Cc3ccco3)C2=O)c(C)n1-c1ccc(C(=O)O)cc1 | 12.2 |
| CCOCCCNC(=S)N1CCN(C(=O)C(=O)Nc2ccc(C(=O)OC)cc2)CC1 | -40.6 |
| CCN(CC)C(=O)c1sc(NC(=O)Cc2ccccc2)c(C#N)c1C | -11.3 |
| O=C(Cn1nnc(-c2ccccc2)n1)Nc1cccc(S(=O)(=O)N2CCCC2)c1 | -2.26 |
| Cn1c(=O)[nH]c(=O)c2c1nc(CN1CCN(c3ccc(F)cc3)CC1)n2CCN1CCOCC1 | -25.8 |
| O=C(C[n+]1ccc(/C=C/c2ccccc2)cc1)c1ccc2c(c1)OCCO2.[Br-] | -50.2 |
| Cc1c(C(=O)N2CCN(c3ncccn3)CC2)sc2nc3n(c(=O)c12)CCCC3 | 12.5 |
| CCOC(=O)c1ccc(S(=O)(=O)N2CCN(S(=O)(=O)CC)CC2)cc1 | 8.36 |
| CC1(C)CC(=O)C2=C(C1)OC(N)=C(C#N)C21C(=O)N(CN2CCOCC2)c2ccccc21 (centres unmarked) | 17.8 |
| CCn1c(SCC(=O)NNC(=O)c2ccc(OC)cc2)nnc1-c1cccnc1 | -14.9 |
| Oc1ccccc1-c1nc(N2CCCC2)c2ccccc2n1 | -13.2 |
| NC(=O)CSc1nc2c(sc(=S)n2-c2ccccc2)c(=O)[nH]1 | 22.8 |
| COc1ccc(C)cc1NC(=O)CCCN1C(=O)CN(C)C1=O | -14.1 |
| COc1cc(NC(=O)CN2CCC(Cc3ccccc3)CC2)c(C)cc1[N+](=O)[O-] | 6.01 |
